We go through 90 compounds from publication PMC4336329 (PLoS ONE, 2015).

Molecules are shown by their SMILES. Among all 310,000 compounds or so, about 14,000 (4.5%) showed an effect of 50% or more. Effects have a minus sign here. This is one part of the list.
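Note: peak tail current of the secondary pulse compared with the same well before compound.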

The target of this assay is human ether-à-go-go-related gene (hERG) potassium channel (human, UniProt Q12809). The assay can be described thus: primary screen, population patch clamp on CHO cells stably expressing hERG.
Chain of human ether-à-go-go-related gene (hERG) potassium channel (Q12809 whole entry, looked up): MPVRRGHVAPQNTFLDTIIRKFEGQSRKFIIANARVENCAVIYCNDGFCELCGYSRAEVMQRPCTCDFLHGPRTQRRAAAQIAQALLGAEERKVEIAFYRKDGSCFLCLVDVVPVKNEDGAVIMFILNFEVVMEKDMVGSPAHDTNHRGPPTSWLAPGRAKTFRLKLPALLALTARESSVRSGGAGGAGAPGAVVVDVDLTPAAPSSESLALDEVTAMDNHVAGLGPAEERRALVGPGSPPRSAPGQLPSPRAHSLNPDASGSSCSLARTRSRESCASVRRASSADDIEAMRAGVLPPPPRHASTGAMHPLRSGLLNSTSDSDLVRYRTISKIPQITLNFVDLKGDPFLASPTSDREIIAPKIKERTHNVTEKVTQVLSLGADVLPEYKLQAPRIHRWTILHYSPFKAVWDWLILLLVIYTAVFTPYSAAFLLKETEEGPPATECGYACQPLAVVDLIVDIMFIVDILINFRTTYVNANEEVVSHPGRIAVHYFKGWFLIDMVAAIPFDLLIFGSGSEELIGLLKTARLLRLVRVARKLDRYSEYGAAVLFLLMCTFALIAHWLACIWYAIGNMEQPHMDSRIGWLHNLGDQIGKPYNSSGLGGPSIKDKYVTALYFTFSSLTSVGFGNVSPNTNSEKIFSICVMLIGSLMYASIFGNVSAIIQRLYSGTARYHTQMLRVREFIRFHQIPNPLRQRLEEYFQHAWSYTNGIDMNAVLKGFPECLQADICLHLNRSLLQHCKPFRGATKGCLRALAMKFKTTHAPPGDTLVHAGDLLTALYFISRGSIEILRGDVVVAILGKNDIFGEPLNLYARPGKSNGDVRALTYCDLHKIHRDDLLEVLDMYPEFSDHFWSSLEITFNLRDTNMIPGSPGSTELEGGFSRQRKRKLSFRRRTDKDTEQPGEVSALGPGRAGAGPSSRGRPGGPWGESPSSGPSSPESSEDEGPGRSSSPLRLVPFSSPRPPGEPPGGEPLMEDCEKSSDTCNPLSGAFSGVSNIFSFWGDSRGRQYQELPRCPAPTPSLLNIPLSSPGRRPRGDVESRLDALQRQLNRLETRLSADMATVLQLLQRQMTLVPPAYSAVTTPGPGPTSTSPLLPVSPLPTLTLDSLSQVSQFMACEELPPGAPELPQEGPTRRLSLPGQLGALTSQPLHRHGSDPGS
On to `COCCN1CCN(C(=O)C2CCC(=O)N(Cc3cccc(C(F)(F)F)c3)C2)CC1` (stereo not drawn), for which the “hERG current change (%, negative = inhibition) at 10uM” value was found to be 2.95%. The same measure for `COc1ccc(Cl)cc1/C=C1/C(=O)ON=C1C`: 14.4%. The same measure for `COc1ccc(CNC(=O)c2csc(Cc3ccc(OC)cc3)n2)cc1`: -13%; for `COc1ccc(N(C)S(=O)(=O)c2cccc(C(=O)NC3CCC(C)CC3)c2)cc1` (stereo not drawn): -14.2%; for `Cc1cc(=O)oc2cc(NC(=O)C(CCCN=C(N)N)NC(=O)OCc3ccccc3)ccc12` (stereo not drawn): 18.1%. On to `CN(CC(=O)Nc1ccc(F)cc1)C(=O)COC(=O)/C=C/c1ccccc1[N+](=O)[O-]`, for which the “hERG current change (%, negative = inhibition) at 10uM” value is reported as -46%.

Take `COc1cccc(N(CC(=O)NC2CC3CCC2C3)S(=O)(=O)c2ccccc2)c1` (stereo not drawn): the “hERG current change (%, negative = inhibition) at 10uM” value is listed as -23.2%. The same measure for `O=C(Cc1cccs1)N(c1ccc(Br)cc1)C1C=CS(=O)(=O)C1` (stereo not drawn): 0.356%. The same measure for `C=CCn1cc(/C=C2\SC(N3CCOCC3)=NC2=O)c2ccccc21`: -5.35%; for `COc1ccc(C)cc1NC(=O)c1cc2ccccc2cc1OCC(=O)NCc1ccco1`: 0.0844%. The same measure for `COC(=O)c1oc2ccc(Br)cc2c1NC(=O)CCN1CCOCC1`: -17.7%; for `Cc1nc(CS(=O)(=O)c2ccccc2)cc(Sc2ccc(Cl)cc2Cl)n1`: -10.1%. Consider `Cc1cc(/C=N/NC(=O)c2cccs2)c(C)n1-c1cnccn1`, for which the “hERG current change (%, negative = inhibition) at 10uM” value is listed as 6.47%.

In the case of `COCCCN1CC(=O)N2C(c3cccc(OC)c3OC)c3[nH]c4ccccc4c3C[C@H]2C1=O` (stereo partly drawn), the “hERG current change (%, negative = inhibition) at 10uM” value is -25.7%. Turning to `COc1ccc([N+](=O)[O-])cc1N(CC(=O)N1CCN(Cc2ccccc2)CC1)S(C)(=O)=O`, the “hERG current change (%, negative = inhibition) at 10uM” value was 5.94%. For `CCOC(=O)N1CCC(N(CCCOC)C(=O)Nc2cccc(OC)c2)CC1`, the “hERG current change (%, negative = inhibition) at 10uM” value was determined as 0.292%. With `CCc1ccc(C(=O)O)cc1`, the “hERG current change (%, negative = inhibition) at 10uM” value was found to be 14.8%. The same measure for `Cc1cc(Cl)ccc1-n1c(-c2cccnc2)n[nH]c1=S`: 14.8%; for `Cc1ccc(NC(=O)COc2ccc(/C(N)=N/O)cc2)cc1C`: -14.1%. Under `CS(=O)(=O)N(CC(=O)Nc1cccc(Cl)c1)c1ccccc1Cl` stands -12.3%.

For the compound `O=C(NCCCN1CCCCCC1)c1ccc2c(c1)NC(=O)C(N1CCOCC1)S2` (stereo not drawn), the “hERG current change (%, negative = inhibition) at 10uM” value came out at 6.27%. The same measure for `COc1cccc(CC(=O)Nc2cccc3ccccc23)c1`: -39.5%.

For the compound `CCCCCSc1nc2c(c(=O)[nH]c(=O)n2C)n1C(C)C`, the “hERG current change (%, negative = inhibition) at 10uM” value came out at 2.38%. The same measure for `CCNc1ccc(C(=O)NN=C2CCCC2)cc1[N+](=O)[O-]`: -37.9%; for `CN=c1scc(-c2cccs2)n1/N=C/c1ccccc1O`: 11.1%. The same measure for `COc1ccc(OCc2cc(C(=O)N(C)Cc3nccn3C)no2)c2ccccc12`: -23.4%; for `O=C(Cc1cccc(C(F)(F)F)c1)Nc1cccc(S(=O)(=O)N2CCCC2)c1`: 22.7%.

For the compound `NC(=O)C1(N2CCCCC2)CCN(Cc2nc(-c3cccs3)no2)CC1`, the “hERG current change (%, negative = inhibition) at 10uM” value was determined as 4.28%.

As to `Cc1ccc(-n2c(=S)sc3c(=O)n(-c4ccc(F)cc4)c(SCC(=O)O)nc32)cc1C`, the “hERG current change (%, negative = inhibition) at 10uM” value worked out at 18.6%.

With `Cc1ccc(/C=N/n2c(C)nc3ccccc3c2=O)s1`, the “hERG current change (%, negative = inhibition) at 10uM” value is given as -3.52%. Under `O=C(c1n[nH]c(=O)c2ccccc12)N1CCN(C2c3ccccc3-c3ccccc32)CC1` stands -2.33%. The same measure for `CCN(CC)CCCn1c2c(c(SCC(=O)Nc3nc(C)cs3)nc1=O)CCC2`: -42.6%; for `CCc1ccc(-c2n[nH]c(=O)c3ccccc23)cc1`: 6.01%; for `CCOC(=O)c1cc(NC(=O)NC2CCCCC2)c(C)nc1C`: 17.3%. The same measure for `O=C(CSc1ccc2c(c1)OCCO2)Nc1ccc(Br)cn1`: 17%; for `COc1ccc(C2=Nn3c(nnc3-c3ccccn3)SC2)cc1`: -34.3%; for `Cc1ccccc1S(=O)(=O)N(CC(O)CN1CCCCC1)c1ccccc1` (stereo not drawn): -71.7%. With `Nc1nc(N2CCCCC2)nc(N(c2ccccc2)c2ccccc2)n1`, the “hERG current change (%, negative = inhibition) at 10uM” value came out at 17.1%. `COc1ccccc1-c1noc(-c2ccncc2)n1`: the “hERG current change (%, negative = inhibition) at 10uM” value came out at 6.52%.

On to `Cc1onc(-c2ccccc2Cl)c1C(=O)NC(=S)Nc1ccc(C(C)(C)C)cc1`, for which the “hERG current change (%, negative = inhibition) at 10uM” value was 11.6%. The same measure for `CCOc1ccc(NC(=O)CSC2=NN3CCCC(=O)N=C3S2)cc1`: 21.5%; for `CC(C)CN(CCCNC(=O)CC1Oc2ccccc2NC1=O)CC(C)C` (stereo not drawn): -14%. Regarding `COc1ccc(-n2nnc3c(=O)n(Cc4ccccc4C)cnc32)cc1`, the “hERG current change (%, negative = inhibition) at 10uM” value is on record as -2.1%.

As to `Cc1ccc(C(=O)N/N=C\c2ccc([N+](=O)[O-])o2)cn1`, the “hERG current change (%, negative = inhibition) at 10uM” value is reported as -11.1%. The same measure for `Cc1cccc(-c2nsc(SCC(=O)Nc3nccs3)n2)c1`: 24.8%; for `O=C(O)c1cc2n(n1)C(C(F)(F)F)CC(c1ccco1)N2` (stereo not drawn): 22.2%. `CCc1cccc(NC(=O)CSc2nnc(Cc3ccc(OC)cc3)c(=O)[nH]2)c1`: the “hERG current change (%, negative = inhibition) at 10uM” value is reported as 4%.

Take `CCOCc1nnc(NC(=O)c2cc(OC)c(OC)c(OC)c2)s1`: the “hERG current change (%, negative = inhibition) at 10uM” value was 7.16%. Under `Cn1nc(C(=O)OCC(=O)c2ccc(Br)cc2)c2ccccc2c1=O` stands 8.6%. Under `COc1ccccc1N1C(=O)N(CC(=O)C(C)(C)C)c2ccccc2S1(=O)=O` stands 15.1%; under `COc1ccc(C2/C=C\CN(C(=O)Oc3ccc(C(F)(F)F)cc3)CC(=O)N2Cc2ccc(F)cc2)cc1` (stereo not drawn), -9.5%. On to `CCOC(=O)N1CCN(Cc2nc(Cc3cccc(C(F)(F)F)c3)no2)CC1`, for which the “hERG current change (%, negative = inhibition) at 10uM” value was -15%. The same measure for `CN(C)CCNC(=O)c1c(CSc2ccc(Cl)cc2)noc1C(=O)NCc1ccccc1`: -7.93%.

Regarding `C/[N+]([O-])=C/c1c(OCc2ccc(Cl)cc2Cl)ccc2ccccc12`, the “hERG current change (%, negative = inhibition) at 10uM” value turned out to be 20.4%. The same measure for `Cc1ccc(NS(=O)(=O)c2ccc(N3CCN(c4ccc(O)cc4)CC3)c([N+](=O)[O-])c2)c(C)c1`: 2.66%; for `O=C(Nc1ccc([N+](=O)[O-])cn1)C1CC2CCC1C2` (stereo not drawn): -15.3%; for `c1ccc(CCc2nc(-c3ccccn3)no2)cc1`: -1.19%. The same measure for `CCCN1CCN(C(=S)NCc2ccc(Cl)cc2)CC1`: -36%. The same measure for `CN(C(=O)COC(=O)COc1ccc(Cl)cc1Cl)c1c(N)n(Cc2ccccc2)c(=O)[nH]c1=O`: 24.3%; for `Cc1cc(N2CCC(C)CC2)n2nc(C)c(-c3ccccc3)c2n1`: 5.93%. `COc1ccccc1NC(=O)Nc1cc(F)ccc1F`: the “hERG current change (%, negative = inhibition) at 10uM” value was determined as 24.4%. The same measure for `COc1ccc(CCN2CC(C(=O)NC3CCCCC3)CC2=O)cc1OC` (stereo not drawn): 10.2%. Under `CCCCS/C(N)=N/N=C/c1cc(C)ccc1O` stands 2.19%.

Consider `CCOc1nc(-c2ccccc2Cl)nc2ccccc12`, for which the “hERG current change (%, negative = inhibition) at 10uM” value was -8.26%. Under `CCOC(=O)Cc1csc(NC(=O)CN2CCCCC2)n1` stands 9.3%; under `O=C(Nc1ccccc1)OCCNC(=O)c1cccc(Br)c1`, 8.28%; under `Cc1ccc(C(=O)COC(=O)CN2C(=O)C3C4C=CC(C4)C3C2=O)cc1[N+](=O)[O-]` (stereo not drawn), 21.5%. Consider `COc1ccc(-c2nc(CS(=O)CC(=O)NC3CCCC3)c(C)o2)cc1OC` (stereo not drawn), for which the “hERG current change (%, negative = inhibition) at 10uM” value was -8.51%. The same measure for `COc1ccc(NC(=O)Cn2c(C)cc(=O)c3ccccc32)cc1`: -7.76%; for `CCCc1n[nH]c2c1/C(=N\OCC)CC(C)(C)C2`: 0.797%; for `COc1ccc(/C=N/N2C(C)CCCC2C)cc1O` (stereo not drawn): 18.8%.

Turning to `O=C(Cn1nc(C(F)F)cc1C1CC1)N1CCCC1`, the “hERG current change (%, negative = inhibition) at 10uM” value is on record as 1.61%. Under `NNC(=O)c1ccc(COc2ccc([N+](=O)[O-])cc2)o1` stands -23.1%; under `Cc1ccsc1/C=N/NC(=O)C1C(=O)NCC1c1ccccc1` (stereo not drawn), 1.53%. The same measure for `Nc1ncnc(N)c1N=Nc1ccccc1`: 15%. The same measure for `O=C(NCc1ccncc1)C1CCCN1S(=O)(=O)c1ccc(Cl)cc1` (stereo not drawn): -8.68%.

For the compound `Cc1nonc1CN(C)C(=O)c1ccc(OC2CCN(C(=O)c3cccnc3)CC2)cc1`, the “hERG current change (%, negative = inhibition) at 10uM” value was 32%. Under `CC(C)CC(=O)N1CCN(C(=O)c2ccc(-c3ccccc3)cc2)CC1` stands -4.45%.

On to `O=C(CSc1nnc(NC(=O)c2ccc3c(c2)OCO3)s1)NCc1ccco1`, for which the “hERG current change (%, negative = inhibition) at 10uM” value was 20%. Under `Cc1noc(C)c1COC(=O)CCCc1c[nH]c2ccccc12` stands -0.395%; under `COc1cc(C(=O)N2CCN(C3CCC(C)CC3)CC2)cc(OC)c1OC.O=C(O)C(=O)O` (stereo not drawn), 8.29%. The same measure for `Cl.c1coc(CNCc2cccs2)c1`: 6.9%; for `CCc1ccc(C(=O)NCC2COc3ccccc3O2)o1` (stereo not drawn): -24.3%; for `CCOC(=O)Nc1ccc2ncn(C)c(=O)c2c1`: 15.8%.

On to `COc1ccc(S(=O)(=O)N2CCC(C(=O)N(C)Cc3ccc(C)o3)CC2)cc1OC`, for which the “hERG current change (%, negative = inhibition) at 10uM” value is listed as -18.4%. The same measure for `Nc1nc(-c2ccco2)nn1C(=O)c1ccccc1`: 19.9%; for `CCOc1cc(C(=O)NCc2ccccc2)ccc1OCC(=O)N1CCOCC1`: 1.44%.

Consider `N#Cc1ccc(C(=O)OCCc2cc3ccccc3c(=O)o2)cc1`, for which the “hERG current change (%, negative = inhibition) at 10uM” value is on record as -29%. The same measure for `CCOc1ccc(-c2n[nH]c(C)c2-c2ccccc2OC)c(O)c1`: 23.4%; for `O=C(NN1C(=O)/C(=C/c2cccs2)SC1=S)c1ccncc1`: -5.9%.
